The whole screen tested about 52,000 compounds, of which about 4,300 (8.3%) were called active. Rule as the data show it: active = survival mostly below about 52% (no sharp cut-off); inactive = mostly above about 56%. This is one part of the list.
The compounds below were run on DeltatarO mutant (assay: growth inhibition of S. aureus wild type versus tarO mutant, primary screen, teichoic acid synthesis inhibitors, RN4220, OD600 (AID 463173)). Conditions: OD600, 18 h, hits give low values, screened at 18.75 µg/mL (by protocol).

Question: For Cc1ccc(-n2nnnc2CNC(=O)c2ccccc2S(C)(=O)=O)cc1C, which survival is on record?
Answer: The survival was inactive: 92%.

Question: How did the survival turn out when CCOC(=O)c1[nH]c(C)c(Cc2ccc(OCC)cc2)c1C was run?
Answer: The survival was inactive: 82%.

Question: COc1ccc(-c2cn3nc(N4CCCC(C(=O)Nc5ccc(C)c(C)c5)C4)sc3n2)cc1 (stereo not given) was tested. Which survival did it give?
Answer: The survival was inactive: 66%.

Question: How did the survival turn out when FC(F)(F)c1cc(-c2ccccc2)nc2cc(-c3ccc(Br)cc3)nn12 was run?
Answer: Its survival is active: 42%.

Question: How did the survival turn out when Cc1nnc(SCc2ccc(Cl)cc2)c2cc3occc3n12 was run?
Answer: Its survival is active: 28%.

Question: How did the survival turn out when Cc1cccc(N2CCN(c3cc(C)nc4c(-c5ccc(Cl)cc5)c(C)nn34)CC2C)c1 (stereo not given) was run?
Answer: The survival was inactive: 68%.

Question: For CCOc1ccc(NC(=O)NCCCN2CCN(c3ccc(F)cc3)CC2)cc1, which survival is on record?
Answer: The survival was inactive: 76%.

Question: Which survival does the source give for O=C(O)CCC1(CCC(=O)O)CCCCC1=O here?
Answer: Its survival is inactive: 88%.

Question: Which survival does the source give for CCCNc1ncnc2onc(C)c12 here?
Answer: Its survival is inactive: 80%.

Question: Cc1ccc(C(=O)n2nc(C)c(S(=O)(=O)N3CCOCC3)c2C)cc1 was tested. Which survival did it give?
Answer: The survival was inactive: 77%.

Question: Cc1ccc(CSc2nc(-c3cccs3)ccc2C#N)cc1 was tested. Which survival did it give?
Answer: The survival was active: 25%.

Question: With CC(C)c1cnc2c(c1SCC(=O)Nc1ccccc1C(F)(F)F)c(=O)n(C)c(=O)n2C as the compound, how does the survival read?
Answer: The survival was inactive: 68%.

Question: COc1cccc(-c2nn(C)c3sc(C(=O)NCCc4ccc(Cl)cc4)cc23)c1 was tested. Which survival did it give?
Answer: Its survival is inactive: 87%.

Question: For O=C(NCc1ccco1)C(c1ccccc1)N(Cc1ccco1)C(=O)Cn1nnc2ccccc21 (stereo not given), which survival is on record?
Answer: Its survival is inactive: 93%.

Question: How did the survival turn out when Cc1cc(S(=O)(=O)Nc2ccc(-c3ccc(N4CCCCC4)nn3)cc2)c(C)cc1Cl was run?
Answer: The survival was inactive: 118%.

Question: How did the survival turn out when CCOc1ccc(NC(=O)CSc2nnc3scc(-c4ccc(Cl)cc4)n23)cc1 was run?
Answer: The survival was inactive: 48%.

Question: With CCOc1cccc2cc(-c3nc4ccc(C(=O)O)cc4[nH]3)c(=O)oc12 as the compound, how does the survival read?
Answer: The survival was inactive: 69%.

Question: COc1cc2oc(=O)c(CC(=O)N3CCCCC3)c(C)c2cc1Cl was tested. Which survival did it give?
Answer: Its survival is inactive: 64%.

Question: COc1ccc(C)cc1S(=O)(=O)N1CCN(c2cccc(Cl)c2)CC1 was tested. Which survival did it give?
Answer: Its survival is inactive: 59%.

Question: How did the survival turn out when Cc1cccc(-n2c3nc(=O)[nH]c(=O)c-3cc3c(Cl)cccc32)c1C was run?
Answer: The survival was inactive: 130%.

Question: How did the survival turn out when CC(=O)N1CCc2c(sc3c2c(=O)n(-c2ccccc2)c(=O)n3CC(=O)Nc2ccccc2C)C1 was run?
Answer: The survival was inactive: 71%.

Question: Cc1ccccc1S(=O)(=O)Cc1ccc(C(=O)NC2CCCCC2)o1 was tested. Which survival did it give?
Answer: Its survival is inactive: 116%.

Question: How did the survival turn out when COc1ccc(NC(=O)c2oc3ccccc3c2NC(=O)c2cc3ccccc3o2)cc1 was run?
Answer: The survival was inactive: 89%.

Question: With CCOc1ccc(NS(=O)(=O)c2ccc3[nH]cc(C(=O)N(C)Cc4ccccc4)c(=O)c3c2)cc1 as the compound, how does the survival read?
Answer: Its survival is active: 6%.

Question: Which survival does the source give for Cc1ccc(OC(=O)c2cc(-c3ccc4c(c3)OCCO4)on2)cc1C here?
Answer: The survival was active: -2%.

Source: PubChem BioAssay AID463173 (ICCB-Longwood Screening Facility, Harvard Medical School, 2010)
